Measurements reported in the supplement of paper PMC7125110.
Variants at the background level are over-represented here.

B1: glmS ribozyme (parent)
chain: AUAAAAGCGCCAGAACUACAGAAAUGUAGUUGACGAGGAGGAGGUUUAUCGAAUUUUCGGCGGAUGCCUCCAAA

What was measured:
Details in all cases: with glucosamine-6-phosphate
glucosamine-6-phosphate [1] = variants of: B1; assay: kcat; higher = faster cleavage; RNA array
Outline: (§1)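 Barcoded ribozyme variants were transcribed in situ on sequenced MiSeq chips by E. coli RNA polymerase. At 37 °C, a hybridised Cy3 probe tracked them while glucosamine-6-phosphate (40 μM to 10 mM) in HEPES/KCl/Mg(OAc)2 buffer flowed in and tiles were imaged over ~14 h. Per-tile medians of signals normalised to baseline and to non-cleaving reference variants were fit to one- or two-exponential decays, giving kobs. kcat and KM came from weighted Michaelis–Menten fits across concentrations.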

glucosamine-6-phosphate [2] = variants of: B1; assay: self-cleavage kobs at 40 uM GlcN6P; higher = faster cleavage; RNA array
Outline: as §1

glucosamine-6-phosphate [3] = variants of: B1; assay: self-cleavage kobs at 640 uM GlcN6P; higher = faster cleavage; RNA array
Outline: as §1

glucosamine-6-phosphate [4] = variants of: B1; assay: self-cleavage kobs at 10000 uM GlcN6P; higher = faster cleavage; RNA array
Outline: as §1

glucosamine-6-phosphate [5] = variants of: B1; assay: self-cleavage kobs at 2500 uM GlcN6P; higher = faster cleavage; RNA array
Outline: as §1

glucosamine-6-phosphate [6] = variants of: B1; assay: self-cleavage kobs at 160 uM GlcN6P; higher = faster cleavage; RNA array
Outline: as §1

| Variant | kcat (glucosamine-6-phosphate [1]) [s⁻¹] | self-cleavage kobs at 40 uM GlcN6P (glucosamine-6-phosphate [2]) [s⁻¹] | self-cleavage kobs at 640 uM GlcN6P (glucosamine-6-phosphate [3]) [s⁻¹] | self-cleavage kobs at 10000 uM GlcN6P (glucosamine-6-phosphate [4]) [s⁻¹] | self-cleavage kobs at 2500 uM GlcN6P (glucosamine-6-phosphate [5]) [s⁻¹] | self-cleavage kobs at 160 uM GlcN6P (glucosamine-6-phosphate [6]) [s⁻¹] |
| --- | --- | --- | --- | --- | --- | --- |
| A39G G63A | < 1e-05 | < 1e-05 | < 1e-05 | < 1e-05 |  |  |
| G51U G63A | < 1e-05 |  | < 1e-05 | < 1e-05 |  |  |
| G51U | < 1e-05 | < 1e-05 |  |  |  |  |
| G29A A64U | < 1e-05 | < 1e-05 | < 1e-05 |  | < 1e-05 |  |
| G35U G51U | < 1e-05 | < 1e-05 | < 1e-05 |  | < 1e-05 | < 1e-05 |
| G9A G51U | < 1e-05 | < 1e-05 | < 1e-05 | < 1e-05 |  | < 1e-05 |
| G13U G60U | < 1e-05 |  |  | < 1e-05 |  |  |
| G38U U55A | < 1e-05 |  |  | < 1e-05 |  |  |
| G38C U65C C71G | < 1e-05 |  |  |  |  | < 1e-05 |
| G40U C58G | < 1e-05 | < 1e-05 | < 1e-05 |  |  | < 1e-05 |
| A36U C58A | < 1e-05 |  | < 1e-05 |  |  |  |
| G38A U65C | < 1e-05 |  |  |  |  |  |
| A36C U47G | < 1e-05 |  |  |  |  |  |
| G29U C68A | < 1e-05 | < 1e-05 |  |  |  |  |
| U57A G63C | < 1e-05 | < 1e-05 |  |  |  |  |
| G38A U47G | < 1e-05 |  | < 1e-05 |  |  |  |
| G9U C11U | < 1e-05 |  |  | < 1e-05 |  |  |
| A48G G51A | < 1e-05 | < 1e-05 |  | < 1e-05 |  |  |
| A6C G32A | < 1e-05 | < 1e-05 |  |  |  |  |
| A14C G38A | < 1e-05 | < 1e-05 |  |  |  | < 1e-05 |
| C34A A53G | < 1e-05 |  | < 1e-05 |  |  |  |
| U54G G60C | < 1e-05 |  |  |  |  |  |
| U31C A36G | < 1e-05 | < 1e-05 |  | < 1e-05 |  |  |
| A15C C50A | < 1e-05 |  |  |  |  |  |
| A15C C50U | < 1e-05 |  |  |  |  | < 1e-05 |
| C58U G66U | < 1e-05 |  |  |  |  |  |
| C8U G37C U57A | < 1e-05 |  |  |  |  |  |

| Variant | kcat (glucosamine-6-phosphate [1]) [s⁻¹] | self-cleavage kobs at 40 uM GlcN6P (glucosamine-6-phosphate [2]) [s⁻¹] | self-cleavage kobs at 640 uM GlcN6P (glucosamine-6-phosphate [3]) [s⁻¹] | self-cleavage kobs at 10000 uM GlcN6P (glucosamine-6-phosphate [4]) [s⁻¹] | self-cleavage kobs at 2500 uM GlcN6P (glucosamine-6-phosphate [5]) [s⁻¹] | self-cleavage kobs at 160 uM GlcN6P (glucosamine-6-phosphate [6]) [s⁻¹] |
| --- | --- | --- | --- | --- | --- | --- |
| G37A G59U | < 1e-05 |  | < 1e-05 | < 1e-05 |  | < 1e-05 |
| C8U A12U | < 1e-05 |  |  |  | < 1e-05 |  |
| C8U A12C | < 1e-05 | < 1e-05 | < 1e-05 | < 1e-05 | < 1e-05 |  |
| C10U C61A | < 1e-05 | < 1e-05 |  |  |  |  |
| G51U U54G | < 1e-05 | < 1e-05 | < 1e-05 |  |  | < 1e-05 |
| G37U G66U | < 1e-05 |  |  |  |  |  |
| A33C A53C | < 1e-05 |  |  |  |  | < 1e-05 |
| C10U C67U | < 1e-05 |  |  |  |  | < 1e-05 |
| C10A C34G C67G C70U | < 1e-05 |  |  |  |  |  |
| A42C U56G | < 1e-05 | < 1e-05 | < 1e-05 |  |  | < 1e-05 |
| U47A C61A | < 1e-05 |  |  |  |  |  |
| A6C G7U C58G C71A | < 1e-05 |  |  |  |  |  |
| C11A C50U | < 1e-05 |  |  |  |  |  |
| C10U A39C | < 1e-05 |  | < 1e-05 |  |  | < 1e-05 |
| C10A A15G | < 1e-05 |  |  |  |  | < 1e-05 |
| A48U C68G | < 1e-05 |  |  |  |  |  |
| C11A A36U | < 1e-05 | < 1e-05 |  |  |  | < 1e-05 |
| C10A A52G | < 1e-05 | < 1e-05 |  |  |  |  |
| A36U U47G | < 1e-05 |  |  |  |  |  |
| C11A G13C | < 1e-05 | < 1e-05 |  |  |  |  |
| C10U U31C | < 1e-05 | < 1e-05 |  |  |  |  |
| G38U C71A | < 1e-05 |  |  |  | < 1e-05 |  |
| G29C A36C G43U | < 1e-05 |  | < 1e-05 | < 1e-05 |  | < 1e-05 |
| G59A G60C | < 1e-05 |  |  |  |  | < 1e-05 |
| C11A C34A | < 1e-05 |  |  | < 1e-05 | < 1e-05 | < 1e-05 |
| C50A G66U | < 1e-05 |  |  |  |  |  |
